# Measured values taken from the BET-seq Pho4 binding data (Le et al. 2018).
# The other results are listed elsewhere or left out. These are noisy estimates, calculated here from bound and input reads.
# Target: T1, Pho4 (S. cerevisiae) (UniProt P07270)
# T1 sequence: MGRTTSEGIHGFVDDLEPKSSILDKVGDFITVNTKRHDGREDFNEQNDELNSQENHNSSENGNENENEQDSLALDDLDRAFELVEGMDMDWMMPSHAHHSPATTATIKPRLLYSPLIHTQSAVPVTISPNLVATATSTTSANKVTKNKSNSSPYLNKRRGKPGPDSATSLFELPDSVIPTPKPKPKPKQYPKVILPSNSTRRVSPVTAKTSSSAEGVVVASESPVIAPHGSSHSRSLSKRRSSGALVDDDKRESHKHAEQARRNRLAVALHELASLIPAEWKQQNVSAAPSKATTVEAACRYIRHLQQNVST
# Test: relative binding free energy (BET-seq); higher = weaker binding
# Settings: reference: library average
row,Sequence,relative binding free energy
1,GGAGGCACGTGGAGCA,-0.09 kcal/mol
2,GTAAGCACGTGATGGG,0.09 kcal/mol
3,AGGGGCACGTGGTGAA,-0.1 kcal/mol
4,ATAGACACGTGGTGAT,0.01 kcal/mol
5,GTATGCACGTGTGTAC,0.05 kcal/mol
6,CAGATCACGTGGGGGG,0.04 kcal/mol
7,GACGGCACGTGTGTTG,0.05 kcal/mol
8,TATTACACGTGGGTCT,-0.12 kcal/mol
9,GGGGGCACGTGTAATC,0.03 kcal/mol
10,ATTGCCACGTGTGGAT,-0.1 kcal/mol
11,ATGGGCACGTGGTCTC,-0.13 kcal/mol
12,GGTGGCACGTGTTCGG,0 kcal/mol
13,TGAATCACGTGGTGTG,0.05 kcal/mol
14,TGTCACACGTGAAGGG,0.14 kcal/mol
15,AGTCGCACGTGGTGTC,-0.07 kcal/mol
16,CGGGCCACGTGGGGCA,-0.35 kcal/mol
17,CTTGGCACGTGTAGAG,-0.09 kcal/mol
18,AGTAGCACGTGTGAAA,0.19 kcal/mol
19,CCGGGCACGTGTGGGC,0.01 kcal/mol
20,TGGACCACGTGAGGGG,0.05 kcal/mol
21,CATGGCACGTGCTGTG,-0.12 kcal/mol
22,TGGAGCACGTGAAGTT,0 kcal/mol
23,GTGCGCACGTGGAGGC,-0.09 kcal/mol
24,ATTGTCACGTGAGTGT,0.2 kcal/mol
25,TGTGGCACGTGAAGGT,0.09 kcal/mol

row,Sequence,relative binding free energy
1,AGGTACACGTGTCGTG,0.13 kcal/mol
2,GAGGTCACGTGATTGC,0.34 kcal/mol
3,GGTTGCACGTGTTATC,0.06 kcal/mol
4,CTGTGCACGTGGGAAT,0.01 kcal/mol
5,CGCGGCACGTGATGTT,-0.01 kcal/mol
6,AGAATCACGTGTCGGG,0.16 kcal/mol
7,GGTCTCACGTGCTTTG,0.25 kcal/mol
8,GTAAACACGTGTTGGT,-0.07 kcal/mol
9,TTTGTCACGTGATGTA,0.31 kcal/mol
10,GTCTTCACGTGTGTTC,0.38 kcal/mol
11,TTGGACACGTGTGCTT,-0.05 kcal/mol
12,TAATGCACGTGTTGCT,-0.15 kcal/mol
13,TACTGCACGTGGTGGC,-0.1 kcal/mol
14,TGTTACACGTGGGGTC,0.1 kcal/mol
15,ATGGACACGTGTGTAC,0.08 kcal/mol
16,GGGTGCACGTGGGTGC,-0.08 kcal/mol
17,ATATGCACGTGAGTGC,0.11 kcal/mol
18,GTGGTCACGTGAATCG,0.36 kcal/mol
19,AGGGTCACGTGGTGCC,-0.01 kcal/mol
20,TTATTCACGTGAGAGG,0.46 kcal/mol
21,GTGGCCACGTGATGCG,0.14 kcal/mol
22,GGACACACGTGGGTTT,-0.12 kcal/mol
23,TGTGGCACGTGACGGA,-0.02 kcal/mol
24,TTTGACACGTGGTCTT,-0.09 kcal/mol
25,TTGGTCACGTGGCCGG,0.04 kcal/mol

row,Sequence,relative binding free energy
1,TTTTGCACGTGTCCTG,0.2 kcal/mol
2,TGTCACACGTGGCTGT,0.05 kcal/mol
3,TGAGGCACGTGAGTAA,0.08 kcal/mol
4,TCTTACACGTGGGAGG,0.18 kcal/mol
5,TGTATCACGTGGAGAC,0.3 kcal/mol
6,CAGGTCACGTGTTATA,0.19 kcal/mol
7,AGAGGCACGTGTCGGG,-0.05 kcal/mol
8,GTTGTCACGTGATACG,0.23 kcal/mol
9,GCATTCACGTGGTAGT,0.2 kcal/mol
10,TCTGTCACGTGGCTGA,0.16 kcal/mol
11,ATGGGCACGTGATTAG,-0.08 kcal/mol
12,GGTTGCACGTGTTGTC,-0.06 kcal/mol
13,TAGTTCACGTGGCGCG,0.35 kcal/mol
14,AAGATCACGTGGAGTT,0.15 kcal/mol
15,TTAAACACGTGTTGTT,-0.06 kcal/mol
16,GAGGGCACGTGGTTGG,-0.07 kcal/mol
17,TGGAACACGTGATGTT,0.26 kcal/mol
18,TGGATCACGTGAAATG,0.25 kcal/mol
19,TTAGGCACGTGTTAGT,-0.09 kcal/mol
20,TTTGTCACGTGAATTG,0.33 kcal/mol
21,TTCGGCACGTGTCGGT,0.1 kcal/mol
22,AAGGTCACGTGTGAAA,0.18 kcal/mol
23,TAAAACACGTGAGGTT,0.26 kcal/mol
24,TGAGCCACGTGTGGAG,-0.04 kcal/mol
25,AATTGCACGTGCAGGG,0.03 kcal/mol

row,Sequence,relative binding free energy
1,AGGAGCACGTGTTGGA,-0.01 kcal/mol
2,TGAGACACGTGGAAGG,-0.01 kcal/mol
3,TTTAACACGTGATCAT,0.12 kcal/mol
4,GGTTACACGTGGGGAG,0.06 kcal/mol
5,CGTGCCACGTGGGTGC,-0.16 kcal/mol
6,CTTATCACGTGTTGTG,0.09 kcal/mol
7,TCCGTCACGTGTTTGG,0 kcal/mol
8,TTTAGCACGTGTAGTA,0.02 kcal/mol
9,CGTAGCACGTGTCTTG,0.05 kcal/mol
10,TATTCCACGTGTTATG,0.13 kcal/mol
11,TATACCACGTGTGGGT,0.03 kcal/mol
12,GCGTACACGTGGGCGG,-0.1 kcal/mol
13,GTAGGCACGTGCCGGT,-0.1 kcal/mol
14,GGTGGCACGTGACGAG,0.15 kcal/mol
15,GACTTCACGTGGTGGT,0.27 kcal/mol
16,GTTGTCACGTGTGGCA,0.2 kcal/mol
17,AGTAGCACGTGTTATA,-0.08 kcal/mol
18,ATGTTCACGTGACGGT,0.18 kcal/mol
19,AGTAGCACGTGGTCAG,-0.14 kcal/mol
20,GTATTCACGTGTGTCA,0.23 kcal/mol
21,GGATACACGTGTGCGT,-0.03 kcal/mol
22,GAATTCACGTGAGTAG,0.46 kcal/mol
23,TATGTCACGTGTGGCT,0.1 kcal/mol
24,ATGTTCACGTGGCGTG,0.06 kcal/mol
25,GGGGTCACGTGATCGG,0.2 kcal/mol

row,Sequence,relative binding free energy
1,AAGTGCACGTGGGGAT,-0.13 kcal/mol
2,GTGGTCACGTGTTGTG,0.12 kcal/mol
3,GGGGTCACGTGGGGCG,0.08 kcal/mol
4,AAAGTCACGTGTTTGC,0.15 kcal/mol
5,GGCGTCACGTGGGCCG,-0.05 kcal/mol
6,GTGCGCACGTGTAGTG,-0.09 kcal/mol
7,TCGCTCACGTGTATGG,0.28 kcal/mol
8,TAAGTCACGTGGTGTT,0 kcal/mol
9,GCTGGCACGTGAAGGT,0.21 kcal/mol
10,CGATTCACGTGGTGGC,0.3 kcal/mol
11,AGAGTCACGTGTCGAG,0.09 kcal/mol
12,ATCGTCACGTGGGACG,0.08 kcal/mol
13,CAGGTCACGTGGGGCG,0 kcal/mol
14,GTCATCACGTGTAGTG,0.17 kcal/mol
15,TCCTGCACGTGGGGGT,-0.3 kcal/mol
16,TGTAACACGTGGTAAG,-0.05 kcal/mol
17,CGTAACACGTGGTCGT,0.08 kcal/mol
18,TGTTACACGTGGGCGC,-0.03 kcal/mol
19,ATGTGCACGTGCTTTA,-0.1 kcal/mol
20,GGGGGCACGTGTCATT,-0.03 kcal/mol
21,ATACTCACGTGTGTTG,0.18 kcal/mol
22,GCTAGCACGTGAGGGT,0.22 kcal/mol
23,TTCCGCACGTGGTTTA,-0.11 kcal/mol
24,AGAAACACGTGTTGAG,0.1 kcal/mol
25,GGCTGCACGTGAGTTG,0.22 kcal/mol

row,Sequence,relative binding free energy
1,TGAAACACGTGTGGGT,0.09 kcal/mol
2,TAGTGCACGTGGTCCT,-0.16 kcal/mol
3,GGAGCCACGTGGGTTT,0.05 kcal/mol
4,TGTTCCACGTGGTTTC,0.11 kcal/mol
5,GTATGCACGTGCTATG,0.03 kcal/mol
6,AGTGTCACGTGTTATA,-0.07 kcal/mol
7,GTTAACACGTGGAGCG,0.07 kcal/mol
8,ACTTACACGTGTGTGG,0.03 kcal/mol
9,TTGTACACGTGATTAC,0.21 kcal/mol
10,AAGGCCACGTGTTGGT,-0.09 kcal/mol
11,CTTGTCACGTGATTCT,0.21 kcal/mol
12,ATTGGCACGTGAACTA,0.15 kcal/mol
13,GCTGGCACGTGTAAGA,0.18 kcal/mol
14,TGTGTCACGTGCCGGG,0.14 kcal/mol
15,TGTTCCACGTGGTAAT,-0.06 kcal/mol
16,AAGAGCACGTGAAAGG,0.24 kcal/mol
17,ATGGACACGTGAATGT,0.18 kcal/mol
18,GCTTACACGTGGGTTA,-0.07 kcal/mol
19,GGTTGCACGTGTGTTG,0.26 kcal/mol
20,ACTAGCACGTGAGGGG,0.16 kcal/mol
21,TGGTGCACGTGCATGG,-0.15 kcal/mol
